# Over roughly 16,000 sequences, “Z-score” has its median near -0.37; the highest 2% begin near 3.1. The list shows a part of the results.
# Tested on: RBM10 RRM1-ZnF-RRM2 (GST-tagged construct)
# Experiment: RNAcompete 7-mer binding Z-score; higher = stronger binding preference
# In short: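 In 1 ml Hepes pH 7.8 buffer with KCl, NaCl, glycerol, DTT, BSA and glutathione Sepharose beads, GST-tagged RBM10 constructs (20 pmol) were incubated for 30 min at 4°C with 1.5 nmol of a designed pool of 241 399 RNAs up to 41 nt. Four 2-min washes at 4°C followed, and bound RNA was detected by microarray hybridisation. Heptamer motif enrichment was expressed as a one-sided Z-score across probes containing each motif.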
row,Sequence,RNAcompete 7-mer binding Z-score
1,GACCUUU,-1.05
2,UACUGAC,-0.628
3,GUGAGAA,1.36
4,UGGUAGC,1.01
5,GAGAAUG,1.66
6,AGUUAGU,0.0204
7,UUGGAUU,0.159
8,AGCGGCG,1.61
9,AUCCAGA,-0.307
10,GGUACGU,0.76
11,AAACACG,-0.187
12,ACAGAGU,0.323
13,UCAUUGC,-0.781
14,ACAAUUU,-0.817
15,UUAGCCU,-0.89
16,ACCCGAG,-0.486
17,CACAGCU,-0.559
18,UUCAACU,-0.832
19,UGCUACC,-0.73
20,ACAUUGC,-0.675
21,AAUUGUU,-0.508
22,CAGGAAG,1.91
23,UCUUUAA,-0.803

row,Sequence,RNAcompete 7-mer binding Z-score
1,ACCAUAG,-0.449
2,AUCCUAG,-0.679
3,CGUGGCU,0.0677
4,CACAAAC,-0.428
5,CGCCCGA,-0.872
6,AUGAUAC,-0.111
7,CACCCAU,-0.755
8,UGACCUU,-0.923
9,GAGUAGU,0.68
10,GUUUUCC,-0.508
11,ACGUACG,0.141
12,AUCUUAU,-0.715
13,CGGGUUG,2.32
14,CAUCUGA,-0.741
15,ACUUAGG,0.162
16,GUAGCAC,0.111
17,AGACUUU,-0.897
18,GGGACUG,1.78
19,ACUCCCG,-0.766
20,CGCUACG,-0.333
21,GUAUACC,-0.289
22,GCUUUAA,-0.726
23,UUCUACU,-0.792

row,Sequence,RNAcompete 7-mer binding Z-score
1,CACGAAA,-0.366
2,GAUAUAA,-0.00512
3,CGUCGCU,-0.548
4,GUUAUAA,-0.246
5,UUAUCUG,-0.679
6,AACGUCA,-0.697
7,GUAUUGG,1.66
8,UCACCCG,-0.912
9,CUUAUGU,-0.821
10,UCAGUGU,-0.114
11,CGGCACC,-0.253
12,UGUGUUA,-0.46
13,GUUGUGA,0.468
14,CGAAGCA,-0.0707
15,GAAGCGA,1.16
16,AUCGGGA,1.87
17,CCCACCG,-0.664
18,GAUACAC,-0.18
19,UAUGAAG,0.108
20,CUAUAUA,-0.621
21,GCGGAUU,0.756
22,UGUUUGA,-0.154
23,UGUCUAA,-0.719

row,Sequence,RNAcompete 7-mer binding Z-score
1,UGUAGUG,0.691
2,ACUUUCG,-0.908
3,AAGCUAU,-0.275
4,CCACAUC,-0.73
5,AGAGAGC,0.133
6,AAGAUCA,-0.0488
7,AGGCCGU,-0.428
8,CCAAAAA,-0.632
9,AUCCACU,-0.763
10,ACGUGUG,0.417
11,UCUCACU,-0.792
12,UUGGCAA,0.523
13,CGGAUAU,0.348
14,ACCCAUU,-1.02
15,AAGCCGC,-0.595
16,GAGUUGC,0.0568
17,CGACGCG,0.0532
18,CGGACAC,0.104
19,UAAGCCC,-0.912
20,CAGGCCC,-0.69
21,GGCCUGU,-0.439
22,GGUCGAG,1.86
23,UUGAUUG,-0.154

row,Sequence,RNAcompete 7-mer binding Z-score
1,UUCAAGC,-0.668
2,CACGGAA,0.661
3,GGCUAGA,0.53
4,UAGCGGG,2.46
5,CAUGCUG,-0.431
6,GCACACG,-0.0925
7,AAUUACU,-0.555
8,UGAAGAA,0.159
9,CCACCCA,-0.471
10,UUCUCGU,-0.672
11,GUGUGAG,1.94
12,GAAAUAC,-0.0925
13,UGCCCCA,-0.635
14,GUCCUCG,-0.628
15,GGCUUAU,-0.428
16,AUGAUAA,-0.114
17,AGACGAG,0.891
18,GGUAAUU,0.789
19,UUGCACA,-0.657
20,UUUAACA,-0.683
21,UCCUACU,-1.03
22,GCGUGGC,1.4
23,UGACCUA,-0.781

row,Sequence,RNAcompete 7-mer binding Z-score
1,CAGAGGA,1.33
2,GCGUCCG,-0.541
3,GCCGAUU,-0.744
4,CUGCACG,-0.661
5,CUAGUCU,-0.723
6,GGCGAAU,0.975
7,UCAGCAU,-0.315
8,UCUACCC,-0.839
9,CUGGAUA,0.355
10,CAUUUGC,-1.04
11,CCUUGCU,-0.963
12,CGUUUAC,-0.675
13,GCUGCAA,-0.329
14,UACCUAC,-0.872
15,CGUUGAG,-0.0816
16,CCAGCGC,-0.522
17,GAGGUGA,2.6
18,GCGCCCA,-0.81
19,CCCGACG,-0.329
20,GCUUGUA,-0.668
21,CCCGGGC,-0.205
22,AGCCACU,-0.897
23,CAGAUAA,-0.191

row,Sequence,RNAcompete 7-mer binding Z-score
1,UGGAAGC,1.59
2,GGAAAUU,0.938
3,GUCGGUG,1.49
4,CCUUCAU,-0.908
5,AGAUUUU,-0.471
6,UGAGUUC,-0.417
7,UCUUCGA,-0.73
8,CUUCUCG,-0.65
9,CUUGAGA,-0.442
10,UGCAGAC,-0.275
11,UAAAGUG,0.304
12,UAGCUAC,-0.566
13,UGCCUGU,-0.795
14,GAGUGUU,0.432
15,CACGACC,-0.708
16,AACACAC,-0.428
17,UUUAAAC,-0.723
18,GUUUAUC,-0.551
19,CCCUCCU,-0.766
20,CCAACAA,-0.624
21,UCGUAAA,-0.409
22,GUCUGGG,0.935
23,GUCGGCC,-0.42

row,Sequence,RNAcompete 7-mer binding Z-score
1,GGUUCAA,0.385
2,CAAGACG,-0.198
3,UUAUAAC,-0.657
4,AUAUAGA,0.0349
5,CGUAUAG,-0.067
6,CAGUUAC,-0.413
7,GUCGCAG,0.108
8,AGCGGCU,0.0532
9,AGCACGG,0.945
10,CGCACUG,-0.53
11,CAUCGCG,-0.526
12,CCCCGCU,-0.617
13,GGGAGUU,1.94
14,AAGCUCU,-0.755
15,ACACAAC,-0.333
16,GGGCGCA,1.38
17,CGGGUGA,2.55
18,GCUGUCG,-0.424
19,UCAUCAG,-0.475
20,GUACGCC,-0.373
21,AUGGUAG,2.45
22,AAGUUUU,-0.329
23,CACAAAU,-0.555

# — the supplement of paper PMC5499739
